# PubChem BioAssay AID504466 (National Center for Advancing Translational Sciences (NCATS), 2011)
# Out of some 330,000 compounds screened, about 4,200 (1.3%) were called active. This list was built around the results that the source calls inconclusive (neither active nor inactive); the mix of calls is not that of the screen. The call rests on the fitted dose curve; in most records, active means well fitted activation curve with a large enough effect; inconclusive means small, poorly fitted or top-dose-only effect; inactive means no such curve, though single readings can be large or run the other way. Where the call is inconclusive, the potency comes from a doubtful curve fit.
# Assay: qHTS screen for small molecules that induce genotoxicity in human embryonic kidney (HEK293T) cells expressing luciferase-tagged ELG1; further: nearly all actives have a fitted effect of over 60% in size; on activity change, positive = activation: % of control where 0% means no effect
# Settings: HEK293T ELG1-luciferase reporter, luminescence, 16 h; series mostly up to 46 µM; activity change, positive = activation: at the top concentration
# Method in brief: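 ELG1-luciferase HEK293T cells, 2,000/well; compound pinned in; 16 hr, 37 °C, 5% CO2; ONE-Glo, 30 min RT; luminescence on CCD imager.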
# Potency means the concentration at half of the fitted maximal effect; tags describe the fitted curve by direction and shape.
SMILES,Potency,"activity change, positive = activation"
C(=C\c1ccccc1)/C=N/N1CCN(c2ccccn2)CC1,active: 4.11 µM,–
C/C(=N\NC(=O)c1ccco1)c1ccc(-c2ccccc2)cc1,active: 9.2 µM,–
CC(C)(C)NC(=O)CCCSc1nc2ccccc2s1,"inconclusive: 5.8 µM [activator, partial curve, poor fit]",–
O=C(/C=C/NNC(=O)c1ccc(Br)cc1)c1ccccc1,"inconclusive: 29.1 µM [activator, single point]",–
O=C(NC(=S)NCc1ccc(-c2nc3ccccc3s2)cc1)c1ccco1,active: 16.4 µM,–
CSc1ccc(-c2nnn(Cc3ccccn3)n2)cc1,"inconclusive: 14.6 µM [activator, partial curve, poor fit]",–
Nc1nc(-c2ccc(Br)s2)c(Br)s1,"inconclusive: 23.1 µM [activator, single point]",–
COc1cc(NC(=O)c2ccc(N3CCCC3=O)cc2)cc(OC)c1,"inconclusive: 4.61 µM [activator, partial curve, poor fit]",–
NS(=O)(=O)c1ccc(CCNC(=O)c2cc(-c3ccccn3)nc3ccc(Br)cc23)cc1,"inconclusive: 29.1 µM [activator, single point]",–
Nc1ccc2nc3c(=O)n(C4CCCCC4)c(=O)[nH]c3nc2c1,"inconclusive: 11.6 µM [activator, partial curve, poor fit]",–
Cc1cc2[nH]c(=O)cc(-c3ccccc3)n2n1,"inconclusive: 14.6 µM [activator, partial curve, poor fit]",–
CN(C)CCC(c1ccc(Cl)cc1)c1ccccn1 (stereo not drawn),"inconclusive: 6.51 µM [activator, partial curve, poor fit]",–
Cn1nnnc1SCC1=C(C(=O)O)N2C(=O)C(NC(=O)C3CC3c3ccccc3)C2SC1 (stereo not drawn),"inconclusive: 1.03 µM [activator, single point]",–
O=C(NCCc1ccc(Cl)cc1)c1ccc2ccccc2n1,"inconclusive: 23.1 µM [activator, single point]",–
CCOCCCn1c(=S)[nH]c2cc(C(=O)NC3CCCCC3C)ccc2c1=O (stereo not drawn),"inconclusive: 23.1 µM [activator, partial curve, poor fit]",–
CC(=O)c1ccc(-n2c(-c3cc(-c4ccsc4)n[nH]3)n[nH]c2=S)cc1,–,inactive: 10.7%
Cc1cc(/C=C2\SC(=S)N(C)C2=O)c(C)n1-c1ccc(O)cc1,"inconclusive: 2.59 µM [activator, partial curve]",–
CCc1nn(C(CC)C(=O)NCCCN2CC(C)CC(C)C2)c(=O)c2cc3oc(C)cc3n12 (stereo not drawn),–,inactive: -1.12%
